According to patent US20240336926A1, “PHARMACEUTICAL COMPOSITION FOR TREATING TRIPLE NEGATIVE BREAST CANCER, CONTAINING NON-NATURAL NUCLEIC ACID LIGAND AS ACTIVE INGREDIENT” (INTEROLIGO CORPORATION, priority 2021, published 2024):

Columns and labels:
[1] = tested on: 4T1-Luc2 triple-negative cell line; assay: TNBC orthotopic mouse model (tumor resection model), Example 7-4; settings: for mice deceased / survival rate: 100 μg intraperitoneally every two days
[2] = tested on: 4T1-Luc2 triple-negative cell line; assay: TNBC orthotopic mouse model (non-tumor resection model), tumor volume; assay type: in vivo; settings: 30 μg, 100 μg, 300 μg intraperitoneally every other day, six injections; vs untreated
Source text: Each test group consisted of five animals.

[3] = tested on: 4T1-Luc2 triple-negative cell line; assay: TNBC orthotopic mouse model (tumor resection model), Example 7-3; settings: 15 injections; for anti-metastasis and anti-recurrence effects: 300 μg and 600 μg intraperitoneally, vs untreated and control groups; for mice deceased / survival rate: as of 59 days
[4] = tested on: 4T1-Luc2 triple-negative cell line; assay: TNBC orthotopic mouse model (tumor resection model), Example 7-2; settings: 30 μg intraperitoneally every other day, six injections; 32 days post-tumor resection
[5] = 300 μg intraperitoneally every two days
[6] = 600 μg intraperitoneally every two days
[7] = 15 injections, 42 days post-tumor resection

In the case of `Nc1ccn([C@@H]2O[C@H](CO)[C@@H](O)C2(F)F)c(=O)n1` [gemcitabine, reference compound], the “time by which the group perished due to metastasis” value ([1]; 1 mg intravenously every two days, 10 injections, post-tumor resection) is reported as no more than 42 days.

For “AD005: truncated nucleic acid ligand GAC6AGCA6AAG6CCGGA6GGCAGC666A6GCCGACCA6, 6 = Nap-dU (DNA GACNAGCANAAGNCCGGANGGCAGCNNNANGCCGACCAN; Nap-dU modified bases; modified_base 4 OTHER; 5-(N-(1-naphthylmethyl)carboxamide)-2-deoxyuridine; modified_base 9 OTHER; 5-(N-(1-naphthylmethyl)carboxamide)-2'-deoxyuridine(Nap-dU); modified_base 13 OTHER; modified_base 19 OTHER; modified_base 26..28 OTHER; 5-(N-(1-naphthylmethyl)carboxamide)-2'-deox)”, the “tumor suppression effect (tumor size)” value [2] was “increasingly effective tumor suppression effect as the dosage increased”, the “anti-metastasis and anti-recurrence effects” value [3] was “increasingly effective anti-metastasis and anti-recurrence effects with higher dosages” and the mice deceased [3, 5] was 4 out of 5. For the same molecule, the survival rate [3, 5] was 20%, the mice deceased [3, 6] was 1 out of 4 and the survival rate [3, 6] was 75%. For the same molecule, the mice deceased [4] was 2 out of 7 and the survival rate [4] was “approximately 70%”.

With “AD089: AD005 truncated sequence GAC6AGCA6AAG6CCGGA6GGCAGC666A6GCC, 6 = Nap-dU (DNA GACUAGCAUAAGUCCGGAUGGCAGCUUUAUGCC; DNA, [NapdU] at 4, 9, 13, 19, 26, 27, 28, 30, backbone not given here)” the “anti-metastasis and anti-recurrence effects” value [3] was “increasingly effective anti-metastasis and anti-recurrence effects with higher dosages”, the mice deceased [3, 5] was 3 out of 4 and the survival rate [3, 5] was 25%. The mice deceased [3, 6] was 2 out of 4 and the survival rate [3, 6] was 50%.

In the case of “AD210: 99TGGAC6AGCA6AAG6CCGGA6GGCAGC666A6GCCGACCA6, 6 = Nap-dU, 9 = gemcitabine (DNA NNTGGACNAGCANAAGNCCGGANGGCAGCNNNANGCCGACCAN; Nap-dU, 5' gemcitabine residues; modified_base 1..2 OTHER; gemcitabine; modified_base 8 OTHER; 5-(N-(1-naphthylmethyl)carboxamide)-2'-deoxyuridine(Nap-dU); modified_base 13 OTHER; modified_base 17 OTHER; modified_base 23 OTHER; modified_base 30..32 O)”, the mice deceased [1, 7] is reported as 3 out of 5, the survival rate [1, 7] is reported as 40% and the “anti-metastasis and anti-recurrence effects vs AD005 300 μg group of 7-3-3” value ([1]; 100 μg intraperitoneally, 15 injections, 42 days post-tumor resection) is reported as “superior anti-metastasis and anti-recurrence effects”.

In the case of “AD211: GAC6AGCA6AAG6CCGGA6GGCAGC666A6GCCGA99A6, 6 = Nap-dU, 9 = gemcitabine (DNA GACNAGCANAAGNCCGGANGGCAGCNNNANGCCGANNAN; Nap-dU and gemcitabine modified nucleotides; modified_base 36..37 OTHER; gemcitabine; modified_base 39 OTHER; 5-(N-(1-naphthylmethyl)carboxamide)-2'-deoxyuridine(Nap-dU); modified_base 30 OTHER; modified_base 26..28 OTHER; modified_base 19 OTHER; modified_base 1)”, the mice deceased [1, 7] is reported as 4 out of 5 and the survival rate [1, 7] is reported as 20%.

With “AD212: GA96AG9A6AAG6CCGGA6GGCAGC666A6GCCGACCA6, 6 = Nap-dU, 9 = gemcitabine (DNA GANNAGNANAAGNCCGGANGGCAGCNNNANGCCGACCAN; Nap-dU and gemcitabine modified nucleotides; modified_base 3 OTHER; Gemcitabine; modified_base 7 OTHER; gemcitabine; modified_base 4 OTHER; 5-(N-(1-naphthylmethyl)carboxamide)-2'-deoxyuridine(Nap-dU); modified_base 9 OTHER; modified_base 13 OTHER; modified_base 19 OTHER; 5-(N-(1-naphthylmethyl)carboxamide)-2'-deoxyuridine)” the mice deceased [1, 7] was 4 out of 5 and the survival rate [1, 7] was 20%.

[NapdU] = 5-[N-(1-naphthylmethyl)carboxamide]-2'-deoxyuridine (Nap-dU), written as 6
